Hit rate of the full screen: of about 50,000 compounds, about 800 (1.6%) showed an effect of 50% or more. Some of the results follow.
These molecules were tested against Bcl-2-like protein 10 (Homo sapiens) (UniProt Q9HD36) (assay: Phenotype converters, Bcl-B/TR3 peptide binding displacement, primary biochemical FP (AID 1240;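 also: 0% = Bcl-B with tracer peptide and DMSO and 100% = tracer peptide lacking Bcl-B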)). Conditions: GST-Bcl-B / FITC-TR3 peptide fluorescence polarization; stronger effect = higher value; compound at 3.75 mg/L.
Chain of UniProt Q9HD36 (Q9HD36 whole entry, looked up): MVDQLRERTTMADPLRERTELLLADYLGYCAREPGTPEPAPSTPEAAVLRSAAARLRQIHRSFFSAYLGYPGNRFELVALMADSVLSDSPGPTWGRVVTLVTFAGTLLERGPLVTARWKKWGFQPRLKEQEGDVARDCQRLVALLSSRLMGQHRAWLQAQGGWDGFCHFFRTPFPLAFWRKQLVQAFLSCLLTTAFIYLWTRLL

SMILES	displacement
COCCN1C(=O)C(=O)/C(=C(/O)c2ccccc2)C1c1ccccc1[N+](=O)[O-] (stereo not given)	-1.1%
Oc1[nH]c2ccc(Cl)cc2c1N=Nc1ccnc2cc(Cl)ccc12	1.2%
O=C(COc1ccc(Br)cc1)Nc1ccc(Cl)cn1	22%
OCc1cccc(N=Cc2ccc(C=Nc3cccc(CO)c3)cc2)c1	-4.7%
O=c1[nH]cnc(O)c1C(c1ccc(F)cc1)c1c(O)nc[nH]c1=O	-1.1%
CC(C1COc2ccccc2O1)N1C(=O)CCC1=O (stereo not given)	2.4%
COc1ccccc1N1CCN(C(=O)CN(c2ccc(C)cc2C)S(=O)(=O)c2ccccc2)CC1	13.9%
O=C(Nc1ncc(S(=O)(=O)c2ccc([N+](=O)[O-])cc2)s1)c1ccc(-c2ccccc2)cc1	2%
Cc1oc2c(CN3CCC(C)CC3)c(O)ccc2c(=O)c1-c1nc2ccccc2s1	6.9%
CN1CCC(=NOC(=O)c2ccc(F)cc2)CC1	-12%
Cc1ccc(C)c(NC(=O)Cc2ccc(Br)cc2)c1	-7.5%
COc1ccccc1NC(=O)CCC1CCCC1	-4.6%
COc1ccc(C2OCC3(COC(C)=O)C(C)C=C(C)C2C3C)cc1 (stereo not given)	-5.3%
O=C(CN1C(=O)S/C(=C/c2ccccc2F)C1=O)Nc1ccccc1C(=O)O	-9.9%
O=C(COc1ccc(Cl)cc1Cl)N1CCCc2ccccc21	-4.7%
CCc1ccc2c(c1)C1(NN=C(c3ccccc3)S1)C(=O)N2 (stereo not given)	-20.2%
CCC(=O)Nc1ccc(NC(=O)c2cc3ccccc3cc2OC)cc1	3%
COC(=O)CSc1nnc(-c2ccccc2)c(-c2ccccc2)n1	-31.5%
Cc1ccc(-n2nc3cc(C)c(NC(=O)COc4ccc(C)c(C)c4)cc3n2)cc1	2.6%
CC(=O)c1ccc(NC(=O)c2ccc(-c3cccc([N+](=O)[O-])c3)o2)cc1	-4.7%
Cc1ccc(S(=O)(=O)NC(=O)Nc2c(C)cccc2C)cc1	8.4%
COc1ccc(S(=O)(=O)N(CC(=O)Nc2ccc(C(C)=O)cc2)c2ccc(C)cc2)cc1OC	12.1%
COc1cccc2c(=O)c(CCC(=O)O)c(C)[nH]c12	11.9%
COc1ccc(N(CC(=O)Nc2ccc(Cl)cc2C)S(=O)(=O)c2ccc(C)c([N+](=O)[O-])c2)cc1	16.7%
COc1ccc(Cl)cc1NC(=O)C1=C(C)NC(=S)NC1c1ccccc1Br (stereo not given)	15%
N#C/C(=C\c1cn(CC(=O)Nc2ccccc2)c2ccccc12)C(=O)Nc1ccc(F)cc1	-30.3%
Cc1ccc(C2CC(C(F)(F)F)n3ncc(C(=O)NCCN4CCOCC4)c3N2)cc1 (stereo not given)	4.8%

SMILES	displacement
CCCN(CCC)CN1C(=O)S/C(=C/c2ccc(C)cc2)C1=O	12.1%
O=C1c2ccc(Oc3cccc([N+](=O)[O-])c3)cc2C(=O)N1c1ccc(Cl)cn1	-13.5%
Cc1ccc(S(=O)(=O)Nc2cc(Sc3nc4ccccc4s3)c(O)c3ccccc23)cc1	-29.8%
O=[N+]([O-])c1ccc(Cl)c(/C=N/N2CCN(Cc3ccccc3Cl)CC2)c1	8.5%
COc1c(Cl)cc(C(=O)Nc2ccc(C)cc2[N+](=O)[O-])cc1Cl	0.1%
CC(=O)CC(=O)Nc1ccc(NC(=O)CC(C)=O)c(Cl)c1	-6%
O=C1NC(=S)N(c2ccc(Br)cc2)C(=O)/C1=C/C=C/c1ccccc1	12.1%
Clc1ccc(C=NN2CCN(Cc3ccccc3)CC2)cc1	-0.6%
COc1ccc2c(c1)N(C(=O)CN1C(=O)c3ccccc3C1=O)C(C)(C)c1ssc(=S)c1-2	-2.3%
Cc1cc(N2C(=O)NC(=O)/C(=C\c3ccco3)C2=O)ccc1Br	74%
CCc1nnc(NC(=O)c2cc([N+](=O)[O-])ccc2Cl)s1	6.3%
COc1ccccc1NC(=O)c1ccc(OC)c([N+](=O)[O-])c1	4.7%
COc1cccc(OCCOc2ccc(/C=C3\C(=O)NN(c4ccccc4)C3=O)cc2OC)c1	-0.2%
COc1ccc(S(=O)(=O)N2CCN(Cc3ccccc3Br)CC2)cc1	0.7%
Cc1ccc(C(=O)N/N=C/c2ccc(-c3ccc(Br)cc3[N+](=O)[O-])o2)o1	-6.4%
S=C(Sc1nc(Nc2ccccc2)nc(Nc2ccccc2)n1)N1CCOCC1	3.1%
CCc1ccc(NC(=O)C(=O)NCC(O)c2ccccc2)cc1 (stereo not given)	5.6%
COc1ccc(C(=O)Nc2ccc(Cl)cc2C)cc1OC	13.6%
CCCCOC(=O)c1cccc(NC(=O)COc2cc(C)cc(C)c2)c1	-3.4%
COc1ccc(-c2ccc(C=C3C(=O)c4ccccc4C3=O)o2)c([N+](=O)[O-])c1	20.7%
O=C1N=C(N2CCN(C3=NC(=O)/C(=C\c4ccc(O)cc4)S3)CC2)S/C1=C\c1ccc(O)cc1	-12.2%
CCCCOC(=O)c1ccc(NC(=O)Nc2ccccc2)cc1	-3.6%
O=C(/C=C/c1ccc(F)cc1)NC(=S)NCc1ccco1	18.2%
CC(=O)NC(NC(C)=O)c1cccc([N+](=O)[O-])c1	2.8%
CC(C)(C)C(=O)Nc1ccc(C(=O)Nc2ccc(NC(=O)c3ccc(NC(=O)C(C)(C)C)cc3)c(Cl)c2)cc1	15.8%
Nc1nnc(CCS(=O)(=O)c2ccc3ccccc3c2)s1	0.1%
COc1ccc(/C=C/C(=O)c2c(O)c(OC)c3occc3c2OC)cc1	9%

SMILES	displacement
COc1ccc(C(=O)ON=C2c3ccccc3-c3ccccc32)cc1[N+](=O)[O-]	12.2%
COc1ccc(C(NC(=O)/C=C\c2ccco2)c2ccc(OC)cc2)cc1	-11.6%
O=C1C2C3C=CC(C2C(=O)N1Cc1cccnc1)C1C(=O)N(Cc2cccnc2)C(=O)C31 (stereo not given)	-6.1%
COc1ccc(CN2CCN(C3CCCCC3)CC2)c(OC)c1OC	0.6%
COc1ccc(-c2cc(=O)n3[nH]c(-c4ccc(C)cc4)cc3n2)cc1	0.2%
Cc1ccc(OCC(=O)Nc2ccc(I)cc2Cl)cc1	11.2%
CCNC(=O)/C(C#N)=C/c1ccc(Cl)cc1Cl	-6%
C=CCN1C(=O)/C(=C\c2ccc(Br)cc2)C(=O)NC1=S	12.4%
CCOc1ccccc1NC(=O)CN(c1cccc([N+](=O)[O-])c1)S(=O)(=O)c1ccccc1	10.6%
Cc1ccnc(N2C(=O)C3C4c5ccccc5C(c5ccccc54)C3C2=O)c1 (stereo not given)	5.1%
CCOc1ccc(OCC)c(C(=O)O)c1	-12.7%
COc1cccc(NC(=O)c2ccc(C)c([N+](=O)[O-])c2)c1	7.1%
O=C(c1ccco1)N1CCN(Cc2ccc(Cl)cc2)CC1	-9.7%
Cc1sc(NC(=O)c2cccnc2)nc1-c1ccc(Br)cc1	0.7%
COC(=O)CSc1nc2sc3c(c2c(=O)n1-c1ccc(OC)cc1)CC(C)(C)OC3	-4.4%
COc1ccc(S(=O)(=O)N(CC(=O)Nc2cc(Cl)ccc2OC)Cc2ccccc2)cc1	-0.3%
Cc1c(C(=O)Nc2cc(C(F)(F)F)cc(C(F)(F)F)c2)oc2ccccc12	-1.2%
COC(=O)C1=C(C)N(c2ccc(C)cc2)/C(=C\c2ccc(OCC(=O)Nc3ccccc3Cl)cc2)C1=O	7.6%
Cc1cc(/C=C2/SC(=S)N(CC(=O)O)C2=O)c(C)n1-c1ccc([N+](=O)[O-])cc1	6.3%
COc1ccc(C(=O)O/N=C(\N)c2cccc([N+](=O)[O-])c2)cc1	-2.8%
CCOC(=O)N1CCN(c2ccc3nnnn3n2)CC1	10.5%
Cc1ccc(-c2csc(NC(=O)c3ccccc3F)c2C(=O)O)cc1	-6.7%
COc1ccc(CC(=O)NCC2(c3ccccc3)CCCC2)cc1OC	-3.4%
CC(C)(C)C(=O)CC(=O)c1ccc(Br)cc1	15.8%
CCn1c2ccccc2c2cc(/C=N/Nc3ccc([N+](=O)[O-])cc3)ccc21	-7.5%
O=[N+]([O-])c1ccc(N2CCN(S(=O)(=O)Cc3ccccc3)CC2)cc1NC1CC1	9.4%
COc1cccc(/C=C/C(=O)c2ccc(F)cc2)c1OC	-1.5%

SMILES	displacement
Cc1cc(C)nc(NC(=O)C23CC4CC(CC(C4)C2)C3)c1	2.4%
CCOC(=O)NC(NC(=S)Nc1ccc(C(C)=O)cc1)C(Cl)(Cl)Cl (stereo not given)	-1.1%
COC(=O)C(C)NC(=O)C(c1ccccc1)c1ccccc1 (stereo not given)	10.9%
Cc1ccc(C(=O)Nc2c(-c3ccccc3)nc3cc(C)ccn23)cc1	8.5%
CCCn1c(/C=C(/OC(=O)c2ccccc2)c2ccccc2)nc2ccccc21	-6%
O=C(Cc1cccc2ccccc12)NCC1(c2ccccc2)CCOCC1	-3.1%
CCOC(=O)c1csc(NC(=O)c2ccc([N+](=O)[O-])o2)n1	-8.8%
O=C(NN=C1CCC(=NNC(=O)c2ccccc2Cl)CC1)c1ccccc1Cl	6.7%
COc1ccc(NC(=O)c2ccccc2NC(=O)c2ccco2)cc1	-3.6%
CN(C)c1cccc(NC(=O)c2cc3ccccc3o2)c1	12.4%
COCCOC(=O)c1c(C)oc2ccc(OCC(N)=O)cc12	7.8%
CCN(CC)c1ccc(/C=N/NC(=O)CSc2nc3ccccc3[nH]2)c(O)c1	-12.1%
CCOc1cc(/C=N/NC(=O)CSc2nc(C)cc(C)n2)ccc1OCc1cccc(Cl)c1	-7.7%
O=C(NCCNC(=O)c1cccnc1)c1cccnc1	0%
CC(C)C(=O)NCCNc1ccc([N+](=O)[O-])cc1Cl	-3.3%
CCOc1ccc(-c2cc(C(=O)Nc3ccncc3)c3ccccc3n2)cc1	5.9%
Cc1cc(C)c2nc(NC(=O)c3ccc(F)c(F)c3)sc2c1	-0.9%
CCc1[nH]nc(C(=O)N/N=C/c2ccccn2)c1C	-14.5%
CCn1nnnc1-c1ccc(OC)c(S(=O)(=O)Nc2ccc(C)c(C)c2)c1	6.6%
O=C(c1ccc(S(=O)(=O)N2CCCC2)cc1)N1CCN(c2ccccc2)CC1	11.3%
Cc1cc(NC(=O)c2ccc(Cl)cc2)ccc1NC(=O)c1ccccc1	-6.4%
CN(C)N1C(=O)c2ccc3c4c(ccc(c24)C1=O)CC3	6.4%
Cc1ccc(SCc2cc(=O)n(-c3nc4ccccc4s3)[nH]2)cc1	8.6%
COc1cc(OC)c(OC)cc1CN1CCN(Cc2cccnc2)CC1	-8.7%

Reference: PubChem BioAssay AID1240 (Sanford-Burnham Center for Chemical Genomics, 2008)
